In this experiment the test system is two or more strains selected from Fusobacterium nucleatum, Fusobacterium sp., Porphyromonas gingivalis, Prevotella intermedia, Klebsiella pneumoniae …. Kind of experiment: MIC test against oral bacterial strains (general protocol). The settings on record: desired = MIC of 1000 or less (parts per million) against two or more of the listed strains.
cyclohexadecen-1-one: the “MIC characteristics required by the present invention” value (shortened to “MIC characteristics required”) is “desired MIC characteristics”.
In the case of `C[C@@H]1CC[C@H]2C(C)(C)[C@H]3C[C@@]12CC[C@@]3(C)O` [cedrol] it was “desired MIC characteristics”; in that of `O=CCc1ccccc1` [phenylacetaldehyde], “desired MIC characteristics”; in that of decen-1-ol, “desired MIC characteristics”.
Then `C=CC(C)(O)CCC=C(C)CCC=C(C)C` (stereo not shown) [nerolidol, 3,7,11-trimethyl-1,6,10-dodecatrien-3-ol], with “desired MIC characteristics”.
Then `C=C(C)C1CC=C(CO)CC1` (stereo not shown) [perilla alcohol, 1,8-p-menthadien-7-ol], with “desired MIC characteristics”.
Turning to `O=C1CCCCCCCCCCCCCC1` [Cyclopenta-decanone, cyclopentadecanone], the “MIC characteristics required” value is given as “desired MIC characteristics”.
In the case of `CCCCCCCCCC(C)C=O` (stereo not shown) [methyl undecanal], the “MIC characteristics required” value is listed as “desired MIC characteristics”.
Then `CCCCCCCC/C=C/C=O` [trans-2-undecenal], with “desired MIC characteristics”; and methyl decanal, with “desired MIC characteristics”.
In the case of `CC(=O)C1=C(C)[C@@H]2C[C@@]3(C1)[C@H](C)CC[C@H]3C2(C)C` [Acetyl cedrene, acetyl cedrene] it was “desired MIC characteristics”.
As for `O=CCCc1ccccc1` [hydrocinnamic aldehyde], the “MIC characteristics required” value was “desired MIC characteristics”.
In the case of `CC1C(C)(C)C2=C(C(=O)CCC2)C1(C)C` (stereo not shown) [cashmerane] it was “desired MIC characteristics”.
In the case of `Cc1ccc(O)cc1C` [3,4-dimethylphenol] it was “desired MIC characteristics”.
On to `C=C(C)[C@@H]1CCC2=CC(=O)C[C@@H](C)[C@]2(C)C1` [nootkatone, (+)-(4r)-4,4-a,5,6,7,8-hexahydro-6-isopropenyl-4,4a-dimethyl-2(3h)-naphthalenone], for which the “MIC characteristics required” value was “desired MIC characteristics”.
Then `CC/C(=C\C[C@H]1CC=C(C)C1(C)C)CO` [levosandol], with “desired MIC characteristics”; and `CC1=CCC(CCC(C)CO)C1(C)C` (stereo not shown) [Brahmanol, 2-methyl-4-(2,2,3-trimethyl-3-cyclopenten-1-yl)-1-butanol], with “desired MIC characteristics”.
Then `COC(=O)c1c(C)cc(O)c(C)c1O` [Methylatrarate, methyl-2,4-dihydroxy-3,6-dimethyl-benzoate], with “desired MIC characteristics”; and `CC(C)=CCC/C(C)=C/CCC(C)CCO` (stereo not shown) [dihydrofarnesol], with “desired MIC characteristics”; and `CCCCCCCCC=CCC=O` [3-dodecenal], with “desired MIC characteristics”.
Then `CCCCCCCCCO` [nonanol], with “desired MIC characteristics”.
With `CC(=O)O[C@]1(C)CC[C@@]23C[C@@H]1C(C)(C)[C@@H]2CC[C@H]3C` [cedryl acetate], the “MIC characteristics required” value is recorded as “desired MIC characteristics”.
In the case of `CCCCCCCCCCCC=O` [dodecanal] it was “desired MIC characteristics”; in that of `CCC(=CCC1CC=C(C)C1(C)C)CO` (stereo not shown) [bacdanol, 2-ethyl-4-(2,2,3-trimethyl-3-cyclopenten-1-yl)-2-buten-1-ol], “desired MIC characteristics”; in that of undecen-1-ol, “desired MIC characteristics”.
Then isocamphylcyclohexanol, with “desired MIC characteristics”; and `O=C1CCCCCCCCCCCCCCO1` [cyclopentadecanolide], with “desired MIC characteristics”.
With `CCC(O)/C(C)=C/C1(C)CC2C=CC1C2` (stereo not shown) [methyl sandeflor], the “MIC characteristics required” value was “desired MIC characteristics”.
`CC(=O)c1cc2c(cc1C)C(C)(C)C(C)C2(C)C` (stereo not shown) [phantolid, 1-(1,1,2,3,3,6-hexamethyl-5-indanyl)-1-ethanone]: the “MIC characteristics required” value is “desired MIC characteristics”.
In the case of `CC1=CCC(CCC(C)C(C)O)C1(C)C` (single isomer, unassigned; (+)) [sandalore, (+)-3-methyl-5-(2,2,3-trimethyl-3-cyclopenten-1-yl)-2-pentanol] it was “desired MIC characteristics”.
In the case of `CC1CCC(C(C)C)C(OCC(O)CO)C1` (stereo not shown) it was “desired MIC characteristics”; in that of `CC(C=O)Cc1ccc(C(C)(C)C)cc1` (stereo not shown) [lilial 1 g, 3-(4-tert-butylphenyl)-2-methylpropanal], “desired MIC characteristics”; in that of `O=C/C=C/c1ccccc1` [Cinnamic aldehyde, cinnamic aldehyde], “desired MIC characteristics”.
For the compound `CCCCCCCCCCC=O` [undecanal], the “MIC characteristics required” value is “desired MIC characteristics”.
With `CCCCC(C)C(=O)O` (stereo not shown) [2-Methylhexanoic acid, 2-methylhexanoic acid], the “MIC characteristics required” value is “desired MIC characteristics”.
In the case of `COc1ccccc1C=CC=O` [o-methoxycinnamic aldehyde] it was “desired MIC characteristics”; in that of `C/C=C/c1ccc(OC)cc1` [anethole, (e)-1-methoxy-4-(1-propenyl)benzene], “desired MIC characteristics”.
Consider `O=C1CCCCCCCCCCC(=O)OCCO1` [ethylenedodecanedioate], for which the “MIC characteristics required” value is on record as “desired MIC characteristics”.
As for `CC1=CCC(C/C=C(\C)CO)C1(C)C` (stereo not shown) [santalinol, (e)-2-methyl-4-(2,2,3-trimethyl-3-cyclopenten-1-yl)-2-buten-1-ol], the “MIC characteristics required” value is “desired MIC characteristics”.
In the case of `C/C=C\c1ccc(O)c(OC)c1` [isoeugenol extra] it was “desired MIC characteristics”.

These data come from US20090324515A1, “ANTIMICROBIAL FLAVOURING COMPOSITION” (priority 2006, published 2009).
